Reference: PubChem BioAssay AID686978 (National Center for Advancing Translational Sciences (NCATS), 2013)
The whole screen tested about 420,000 compounds, of which about 64,000 (15%) were called active. The inconclusive results got no clear call from the source; some entries with a clear call stand among them for comparison. Calls follow the shape of the dose curve; as a rule, active = well fitted inhibition curve with a large enough effect; inconclusive = small, poorly fitted or top-dose-only effect; inactive = flat fitted curve, though single readings scatter. Potencies of inconclusive entries are left out as doubtful fits.

assay: qHTS for Inhibitors of human tyrosyl-DNA phosphodiesterase 1 (TDP1): qHTS in cells in absence of CPT; details: DT40 Tdp1-/- hTDP1 cells, no CPT, ATP luminescence, 48 h; activity change, negative = growth inhibition: at 46.2 µM (top of the series); also: nearly all actives have a fitted effect of over 55% in size
Method in brief: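 Luminescent ATP content (CellTiter-Glo) served as the growth readout. Knockout chicken DT40 cells expressing human TDP1 were exposed to compounds without camptothecin for a minimum 48 hr at 37 °C.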
% is scaled to controls: 0 for no effect and ±100 for the full control effect; potency is read from the fitted curve at half-maximal effect; tags tell the direction and shape of the fitted curve.

**Q.** Which Potency does the source give for `COc1ccc(S(=O)(=O)NC(C)CCc2ccccc2)cc1` (stereo unspecified) here?
**A.** inconclusive [inhibitor, single point]

**Q.** With `CCOc1ccc(C(=O)NC(C(=O)NCc2ccccn2)C(C)C)cc1` (stereo unspecified) as the compound, how does the Potency read?
**A.** inactive

**Q.** With `CC(=O)c1ccc(OCC(=O)Nc2ccc3c(c2)CCC3)cc1` as the compound, how does the Potency read?
**A.** inconclusive [inhibitor, single point]

**Q.** Which Potency does the source give for `O=C(c1cc(-c2ccccc2)n[nH]1)N1CCN(S(=O)(=O)c2ccccc2)CC1` here?
**A.** inconclusive [inhibitor, single point]

**Q.** Which Potency does the source give for `CCOc1ccc(C2C(C(=O)OC)=C(C)N=C3SCCC(=O)N32)cc1OCC` (stereo unspecified) here?
**A.** inactive

**Q.** Which Potency does the source give for `CC1CCN(C(=O)c2cc3c(=O)n(C)c4ccccc4c3s2)CC1` here?
**A.** inconclusive [inhibitor, single point]

**Q.** With `CCOC(=O)c1c(C)[nH]c(C(=O)N2CCC(C(=O)OCC)CC2)c1C` as the compound, how does the Potency read?
**A.** inactive

**Q.** For `COc1cc(-c2nnc(Cn3cc(C(F)(F)F)ccc3=O)o2)cc(OC)c1OC`, which Potency is on record?
**A.** inconclusive [inhibitor, partial curve, poor fit]

**Q.** Which Potency does the source give for `Cc1cc(C)c(C)c(S(=O)(=O)N2CCN(C(=O)c3ccc4c(=O)n5c(nc4c3)CCC5)CC2)c1C` here?
**A.** inconclusive [inhibitor, partial curve]

**Q.** With `CCS(=O)(=O)N1CCN(C(=O)c2cccnc2)CC1` as the compound, how does the Potency read?
**A.** inactive

**Q.** Which Potency does the source give for `Fc1ccc(Nc2nc(NCc3cccs3)nc3ccsc23)cc1` here?
**A.** active: 20.6 µM

**Q.** With `O=C(O)c1ccc(-n2nc(C(F)(F)F)c3c2-c2ccoc2CC3)cc1` as the compound, how does the Potency read?
**A.** inconclusive [inhibitor, single point]

**Q.** Which Potency does the source give for `CCOc1ccc(OC(=O)c2cn(-c3cccc(OC)c3)c(=O)c3ccccc23)cc1` here?
**A.** inconclusive [inhibitor, single point]

**Q.** For `O=C(N/N=C/c1ccncc1)c1ccccc1[N+](=O)[O-]`, which Potency is on record?
**A.** inactive

**Q.** With `Cn1c(=O)c2cc3ccccc3nc2n(C)c1=O` as the compound, how does the Potency read?
**A.** inactive

**Q.** Which Potency does the source give for `CCOC(=O)C1CCN(C(=O)CN2c3ccc(C(C)C)cc3-c3ccccc3S2(=O)=O)CC1` here?
**A.** inconclusive [inhibitor, single point]

**Q.** Which Potency does the source give for `COc1c(C)cc(C(O)c2ncc(-c3ccc(Cl)cc3)[nH]2)cc1C` (stereo unspecified) here?
**A.** inconclusive [inhibitor, single point]

**Q.** For `O=c1[nH]c(N2CCN(c3ccccc3)CC2)nc2c1CCCC2`, which Potency is on record?
**A.** active: 23.1 µM

**Q.** Which Potency does the source give for `O=c1cc(COc2ccccc2[N+](=O)[O-])nc2sccn12` here?
**A.** inactive

**Q.** With `O=c1n(Cc2ccc(F)cc2)nc2n1-c1ccccc1SC2` as the compound, how does the Potency read?
**A.** inconclusive [inhibitor, single point]

**Q.** With `CCCCC[C@H](O)/C=C/[C@H]1[C@H](O)CC(=O)[C@@H]1CCCCCCC(=O)O` as the compound, how does the Potency read?
**A.** inconclusive [inhibitor, single point]

**Q.** And the activity change, negative = growth inhibition?
**A.** inactive: -4.11% [at 4.12 µM]

**Q.** Which Potency does the source give for `CCC(=O)Nc1ccc2c(c1)nc(CCNC(=O)c1ccco1)n2C` here?
**A.** inactive

**Q.** For `Cc1cccc2cc(CN(Cc3ccc(F)cc3)C(=O)C(F)(F)F)c3nnnn3c12`, which Potency is on record?
**A.** inconclusive [inhibitor, single point]

**Q.** For `CCOC(=O)c1c(NC(C)=O)c2c3c(sc2n1Cc1ccc(Cl)cc1)CCCC3`, which Potency is on record?
**A.** active: 14.6 µM

**Q.** For `Cc1c(C(=O)OCC(=O)Nc2c(C)n(C)n(-c3ccccc3)c2=O)cccc1[N+](=O)[O-]`, which Potency is on record?
**A.** inconclusive [inhibitor, single point]

**Q.** For `COc1ccc2cc(C#N)c(SCC(=O)N3CCCC3)nc2c1`, which Potency is on record?
**A.** inconclusive [inhibitor, single point]

**Q.** For `O=C(Nc1cccc(C(F)(F)F)c1)c1ccc(-c2ccc(F)c(F)c2)c2ccoc12`, which Potency is on record?
**A.** inconclusive [inhibitor, partial curve]

**Q.** With `O=C1NC(c2ccccc2)=C(c2nc3ccccc3s2)C(c2ccc(O)cc2)N1` (stereo unspecified) as the compound, how does the Potency read?
**A.** inconclusive [inhibitor, single point]

**Q.** Which Potency does the source give for `O=C(Nc1ccc(F)cc1)C(CCc1ccccc1)N1CCN(Cc2c(F)cccc2Cl)CC1` (stereo unspecified) here?
**A.** inconclusive [inhibitor, single point]

**Q.** For `COc1ccccc1Nc1nc(N2CCOCC2)nc(N2CCOCC2)n1`, which Potency is on record?
**A.** inconclusive [inhibitor, partial curve, poor fit]

**Q.** Which Potency does the source give for `COC(=O)c1sccc1NC(=O)/C=C/c1ccc(Cl)cc1Cl` here?
**A.** inconclusive [inhibitor, single point]

**Q.** With `O=C(O)CN1C(=O)/C(=C/C=C/c2ccccc2)SC1=S` as the compound, how does the Potency read?
**A.** inconclusive [inhibitor, single point]

**Q.** Which Potency does the source give for `COc1ccc(CCNc2nc(-c3ccncc3)cs2)cc1OC` here?
**A.** inconclusive [inhibitor, single point]

**Q.** For `CCOC(=O)c1nnn(-c2nonc2N)c1COc1c(C=O)cccc1OC`, which Potency is on record?
**A.** inconclusive [inhibitor, partial curve]

**Q.** For `CC(NC(=O)c1ccnc(C(C)(C)C)c1)c1ccccc1` (stereo unspecified), which Potency is on record?
**A.** inactive

**Q.** With `COc1ccccc1CNC(=O)CCC1N=C2c3ccccc3N=C(SCC(N)=O)N2C1=O` (stereo unspecified) as the compound, how does the Potency read?
**A.** active: 3.66 µM

**Q.** With `CC1CCCCN1CCCNC(=O)c1[nH]c2ccccc2c1Sc1ccc(Cl)cc1` (stereo unspecified) as the compound, how does the Potency read?
**A.** active: 13 µM

**Q.** For `CCCn1c(SCC(=O)NC(C)(C)C)nnc1C(C)C`, which Potency is on record?
**A.** inactive

**Q.** Which Potency does the source give for `CCSc1nc(-c2ccc(OC)cc2)n(-c2nc3ccccc3s2)n1` here?
**A.** inconclusive [inhibitor, single point]

**Q.** For `CCc1ccc(CNC(=O)C2CCN(c3nc4ccccc4nc3C(F)(F)F)CC2)cc1`, which Potency is on record?
**A.** inconclusive [inhibitor, full curve]

**Q.** Which Potency does the source give for `CCOC(=O)Cn1c(=O)cc(C)c2ccccc21` here?
**A.** active: 11.6 µM

**Q.** Which Potency does the source give for `CN1C(=O)C(C)(C)c2cc(S(=O)(=O)N(C)Cc3ccccc3)ccc21` here?
**A.** inconclusive [inhibitor, single point]

**Q.** For `CCCn1c(C(Cc2ccccc2)NC(=O)COC)nc2ccccc21` (stereo unspecified), which Potency is on record?
**A.** inconclusive [inhibitor, single point]

**Q.** For `CC(Oc1ccc(Br)cc1)C(=O)Nc1cc(S(=O)(=O)N2CCOCC2)ccc1N1CCCC1` (stereo unspecified), which Potency is on record?
**A.** inconclusive [inhibitor, single point]

**Q.** Which Potency does the source give for `COc1cccc(C(=O)N2CCN(Cc3ccccc3C(F)(F)F)CC2)c1` here?
**A.** inconclusive [inhibitor, single point]

**Q.** Which Potency does the source give for `CCCc1nnc(NC(=O)CCC(=O)N2CCN(C3c4ccccc4-c4ccccc43)CC2)s1` here?
**A.** inconclusive [inhibitor, full curve, poor fit]

**Q.** For `O=C(Cc1ccccc1)n1nc(-c2ccco2)nc1SCc1ccccc1`, which Potency is on record?
**A.** inconclusive [inhibitor, single point]

**Q.** With `O=C(NN=Cc1ccccc1O)C1CC1` as the compound, how does the Potency read?
**A.** active: 10.3 µM

**Q.** Which Potency does the source give for `CC(=O)NC(CC(=O)OC(C)C(=O)Nc1ccc(Cl)cn1)c1ccccc1` (stereo unspecified) here?
**A.** inactive

**Q.** With `Cc1ccc(S(=O)(=O)NCC(c2ccc(N(C)C)cc2)N2CCc3ccccc32)cc1C` (stereo unspecified) as the compound, how does the Potency read?
**A.** active: 23.1 µM

**Q.** With `COc1cc(SSc2cc(OC)cc([N+](=O)[O-])c2N)c(N)c([N+](=O)[O-])c1` as the compound, how does the Potency read?
**A.** active: 4.11 µM

**Q.** With `CCOc1ccc(-c2c(C(=O)N/N=C/c3ccc(C)cc3)nnn2-c2nonc2N)cc1` as the compound, how does the Potency read?
**A.** inconclusive [inhibitor, full curve, poor fit]

**Q.** Which Potency does the source give for `COc1ccc(Cl)cc1S(=O)(=O)NC(C)C(=O)NCCN1CCOCC1` (stereo unspecified) here?
**A.** inactive

**Q.** For `Cc1cccc(C)c1NC(=O)CSc1nc2ncccc2o1`, which Potency is on record?
**A.** inactive

**Q.** With `CCOc1ccc(NC(=O)COc2ccccc2C(=O)NCc2ccccc2)cc1` as the compound, how does the Potency read?
**A.** inconclusive [inhibitor, single point]

**Q.** Which Potency does the source give for `Cc1ccc(NC(=O)c2c(NC(=O)Cc3ccccc3)sc3c2CCC3)cc1` here?
**A.** inconclusive [inhibitor, partial curve]

**Q.** With `CCOC(=O)c1c(C(=O)OCC)c(C)n(CCc2ccc(OC)c(OC)c2)c1C` as the compound, how does the Potency read?
**A.** inconclusive [inhibitor, single point]

**Q.** With `CCN1C(=O)c2ccccc2Sc2ccc(NC(=O)Nc3ccccc3OC)cc21` as the compound, how does the Potency read?
**A.** inconclusive [inhibitor, single point]

**Q.** With `CC1Sc2ccc(C(=O)Nc3ccccc3OC(F)F)cc2NC1=O` (stereo unspecified) as the compound, how does the Potency read?
**A.** inconclusive [inhibitor, single point]

**Q.** For `COC(=O)Cc1c(C)c2cc3c(c(C)c2oc1=O)OCN(CCc1ccccc1F)C3`, which Potency is on record?
**A.** inconclusive [inhibitor, partial curve]

**Q.** With `Cc1cc(C(=O)NNc2ccc(F)cc2)no1` as the compound, how does the Potency read?
**A.** inactive

**Q.** Which Potency does the source give for `COc1cccc(C(=O)Oc2cc(N)n(S(=O)(=O)c3ccc(C)cc3)n2)c1OC` here?
**A.** inactive

**Q.** With `C(=N\Nc1ccccn1)/c1ccc2c(c1)OCCO2` as the compound, how does the activity change, negative = growth inhibition read?
**A.** inconclusive: -35.3% [inhibitor]

**Q.** For `Cn1c(=S)[nH]c2cc(C(=O)N3CCN(C(=O)c4ccccc4)CC3)ccc2c1=O`, which Potency is on record?
**A.** inactive

**Q.** For `Cc1sc2nc(CN3CCN(c4ccc(O)cc4)CC3)[nH]c(=O)c2c1C`, which Potency is on record?
**A.** inconclusive [inhibitor, single point]

**Q.** For `Cc1ccc(C(=O)Nc2ccccc2C(=O)O)cc1S(=O)(=O)Nc1ccccc1`, which Potency is on record?
**A.** active: 23.1 µM

**Q.** For `CN1CCC2(CC1)NC(=O)NC2=O`, which Potency is on record?
**A.** inactive

**Q.** With `O=C(CSCC(=O)N1CCN(c2ccccc2)CC1)Nc1nc(-c2ccc(Cl)s2)cs1` as the compound, how does the Potency read?
**A.** inconclusive [inhibitor, single point]

**Q.** For `COc1ccc(-n2ncc3c(N4CCC(C)CC4)ncnc32)cc1`, which Potency is on record?
**A.** inconclusive [inhibitor, partial curve]

**Q.** With `COc1cccc(CNc2nccn(-c3cc(C)cc(C)c3)c2=O)c1` as the compound, how does the Potency read?
**A.** inconclusive [inhibitor, single point]
